Data on one molecule can be found in paper PMC11524019 (Cell Communication and Signaling : CCS, 2024).

The assay has as its target Flag-human Sam68 purified protein (human, UniProt Q07666). As to the kind of experiment: pull-down.
Sequence of UniProt Q07666 (Q07666 whole entry): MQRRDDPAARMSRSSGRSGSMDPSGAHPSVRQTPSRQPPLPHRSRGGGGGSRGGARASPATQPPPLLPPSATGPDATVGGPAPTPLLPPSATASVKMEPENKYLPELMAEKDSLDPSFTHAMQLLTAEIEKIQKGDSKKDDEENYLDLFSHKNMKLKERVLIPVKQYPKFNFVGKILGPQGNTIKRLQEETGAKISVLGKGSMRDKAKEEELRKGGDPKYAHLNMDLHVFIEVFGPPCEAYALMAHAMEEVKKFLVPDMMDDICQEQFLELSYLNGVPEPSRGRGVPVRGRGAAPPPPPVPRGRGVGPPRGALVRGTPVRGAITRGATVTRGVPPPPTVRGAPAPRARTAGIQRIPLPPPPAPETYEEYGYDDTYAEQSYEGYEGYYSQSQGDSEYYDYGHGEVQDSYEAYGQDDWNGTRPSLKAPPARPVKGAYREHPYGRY

B1: recombinant human IPMK purified protein (enzyme)
chain: not shown
Regarding B1, the binding result was “binds”.
